The supplement of paper PMC8728848
The list shows a part of the results.

Legend:
Experiment in all cases: glycan array binding signal (z-score within array); higher = stronger binding
Settings in all cases: glycan notation: IUPAC condensed, linker removed
[1] = biological target: Fuc(a1-2)[GalNAc(a1-3)]Gal(b1-3)GlcNAc(b1-6)GalNAc
Method in brief: (§1)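 The binding signal is a Z-score computed within each array and averaged over linkers. Arrays of the same protein sequence at different concentrations or buffers were also averaged together. Data originate from 3228 arrays in the Consortium for Functional Glycomics database, kept only where the protein sequence was available.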

[2] = biological target: Fuc(a1-2)[GalNAc(a1-3)]Gal(b1-4)Glc
Method in brief: as §1

[3] = biological target: Fuc(a1-2)[GalNAc(a1-3)]Gal(b1-4)GlcNAc
Method in brief: as §1

[4] = biological target: Fuc(a1-2)[GalNAc(a1-3)]Gal(b1-4)GlcNAc(b1-2)Man
Method in brief: as §1

[5] = biological target: Fuc(a1-2)[GalNAc(a1-3)]Gal(b1-4)GlcNAc(b1-2)Man(a1-3)[Fuc(a1-2)[GalNAc(a1-3)]Gal(b1-4)GlcNAc(b1-2)Man(a1-6)]Man(b1-4)GlcNAc(b1-4)GlcNAc
Method in brief: as §1

[6] = biological target: Fuc(a1-2)[GalNAc(a1-3)]Gal(b1-4)GlcNAc(b1-2)Man(a1-3)[Fuc(a1-2)[GalNAc(a1-3)]Gal(b1-4)GlcNAc(b1-2)Man(a1-6)]Man(b1-4)GlcNAc(b1-4)[Fuc(a1-6)]GlcNAc
Method in brief: as §1

[7] = biological target: Fuc(a1-2)[GalNAc(a1-3)]Gal(b1-4)GlcNAc(b1-3)Gal(b1-4)GlcNAc
Method in brief: as §1

[8] = biological target: Fuc(a1-2)[GalNAc(a1-3)]Gal(b1-4)GlcNAc(b1-3)Gal(b1-4)GlcNAc(b1-3)Gal(b1-4)GlcNAc
Method in brief: as §1

[9] = biological target: Fuc(a1-2)[GalNAc(a1-3)]Gal(b1-4)GlcNAc(b1-3)GalNAc
Method in brief: as §1

[10] = biological target: Fuc(a1-2)[GalNAc(a1-3)]Gal(b1-4)GlcNAc(b1-3)[Fuc(a1-2)[GalNAc(a1-3)]Gal(b1-4)GlcNAc(b1-6)]GalNAc
Method in brief: as §1

[11] = biological target: Fuc(a1-2)[GalNAc(a1-3)]Gal(b1-4)GlcNAc(b1-6)GalNAc
Method in brief: as §1

[12] = biological target: Fuc(a1-2)[GalNAc(a1-3)]Gal(b1-4)[Fuc(a1-3)]GlcNAc
Method in brief: as §1

[13] = biological target: Fuc(a1-2)[GalNAc(a1-3)]Gal(b1-4)[Fuc(a1-3)]GlcNAc(b1-3)GalNAc
Method in brief: as §1

[14] = biological target: Fuc(a1-2)[GalNAc(a1-4)]Gal(b1-4)GlcNAc
Method in brief: as §1

[15] = biological target: Fuc(a1-2)[GalNAc(b1-3)]Gal
Method in brief: as §1

Fuc(a1-3)GlcNAc = biological target: Fuc(a1-3)GlcNAc
Method in brief: as §1

[16] = biological target: Fuc(a1-3)[Gal(b1-4)]Glc6S
Method in brief: as §1

[17] = biological target: Fuc(a1-3)[Gal(b1-4)]GlcNAc
Method in brief: as §1

[18] = biological target: Fuc(a1-3)[Gal(b1-4)]GlcNAc(b1-2)Man
Method in brief: as §1

[19] = biological target: Fuc(a1-3)[Gal(b1-4)]GlcNAc(b1-2)Man(a1-3)[Fuc(a1-3)[Gal(b1-4)]GlcNAc(b1-2)Man(a1-6)]Man(b1-4)GlcNAc(b1-4)GlcNAc
Method in brief: as §1

[20] = biological target: Fuc(a1-3)[Gal(b1-4)]GlcNAc(b1-2)Man(a1-3)[Fuc(a1-3)[Gal(b1-4)]GlcNAc(b1-2)Man(a1-6)]Man(b1-4)GlcNAc(b1-4)[Fuc(a1-6)]GlcNAc
Method in brief: as §1

[21] = biological target: Fuc(a1-3)[Gal(b1-4)]GlcNAc(b1-3)Gal(b1-3)[Fuc(a1-4)]GlcNAc
Method in brief: as §1

[22] = biological target: Fuc(a1-3)[Gal(b1-4)]GlcNAc(b1-3)GalNAc
Method in brief: as §1

[23] = biological target: Fuc(a1-3)[Gal(b1-4)]GlcNAc(b1-4)Gal(b1-4)[Fuc(a1-3)]GlcNAc
Method in brief: as §1

[24] = biological target: Fuc(a1-3)[Gal(b1-4)]GlcNAc(b1-4)Gal(b1-4)[Fuc(a1-3)]GlcNAc(b1-4)Gal(b1-4)[Fuc(a1-3)]GlcNAc
Method in brief: as §1

[25] = biological target: Fuc(a1-3)[Gal(b1-4)]GlcNAc(b1-6)GalNAc
Method in brief: as §1

[26] = biological target: Fuc(a1-3)[Gal(b1-4)]GlcNAc(b1-6)[Gal(b1-3)GlcNAc(b1-3)]Gal(b1-4)Glc
Method in brief: as §1

[27] = biological target: Fuc(a1-3)[Gal(b1-4)]GlcNAc6S
Method in brief: as §1

[28] = biological target: Fuc(a1-3)[Gal3S(b1-4)]Glc
Method in brief: as §1

[29] = biological target: Fuc(a1-3)[Gal3S(b1-4)]GlcNAc
Method in brief: as §1

[30] = biological target: Fuc(a1-3)[Gal3S(b1-4)]GlcNAc6S
Method in brief: as §1

[31] = biological target: Fuc(a1-3)[GalNAc(b1-4)]GlcNAc
Method in brief: as §1

[32] = biological target: Fuc(a1-3)[GalNAc(b1-4)]GlcNAc6S
Method in brief: as §1

Fuc(a1-4)GlcNAc = biological target: Fuc(a1-4)GlcNAc
Method in brief: as §1

Fuc(b1-3)GlcNAc = biological target: Fuc(b1-3)GlcNAc
Method in brief: as §1

Gal(a1-2)Gal = biological target: Gal(a1-2)Gal
Method in brief: as §1

Gal(a1-3)Gal = biological target: Gal(a1-3)Gal
Method in brief: as §1

B1: CLECb-Precomplexed (Mus musculus), P43025 (protein)
chain: MAKNGLVLCILVVSLLLDQTDGYPSRMKARKHSKRRVKAKDDDLKSQVEKLWREVNALKEMQALQTVCLRGTKVHKKCYLASEGLKHYHEANEDCISKGGTLVVPRNSDEINALRDYGKRSLPGVNDFWLGINDMVTEGKFLDVHGFAVSFLNWDRAQPSGGKRENCVLFSQSAQGKWSDEACRSSKRYICEFIIPTRTRPLEQKLISEEDLAANDILDYKDDDDKV
glycan array binding signal (z-score) [1]: 0.974
glycan array binding signal (z-score) [2]: -0.431
glycan array binding signal (z-score) [3]: -0.175
glycan array binding signal (z-score) [4]: -0.139
glycan array binding signal (z-score) [5]: -0.336
glycan array binding signal (z-score) [6]: -0.192
glycan array binding signal (z-score) [7]: -0.249
glycan array binding signal (z-score) [8]: 0.179
glycan array binding signal (z-score) [9]: -0.51
glycan array binding signal (z-score) [10]: -0.35
glycan array binding signal (z-score) [11]: -0.188
glycan array binding signal (z-score) [12]: -0.108
glycan array binding signal (z-score) [13]: 0.594
glycan array binding signal (z-score) [14]: -0.079
glycan array binding signal (z-score) [15]: -0.291
glycan array binding signal (z-score) (Fuc(a1-3)GlcNAc): -0.126
glycan array binding signal (z-score) [16]: 0.269
glycan array binding signal (z-score) [17]: 0.129
glycan array binding signal (z-score) [18]: -0.33
glycan array binding signal (z-score) [19]: 0.382
glycan array binding signal (z-score) [20]: -0.171
glycan array binding signal (z-score) [21]: 0.205
glycan array binding signal (z-score) [22]: -0.511
glycan array binding signal (z-score) [23]: -0.184
glycan array binding signal (z-score) [24]: -0.459
glycan array binding signal (z-score) [25]: -0.254
glycan array binding signal (z-score) [26]: 0.092
glycan array binding signal (z-score) [27]: 1.84
glycan array binding signal (z-score) [28]: 0.449
glycan array binding signal (z-score) [29]: -0.309
glycan array binding signal (z-score) [30]: -0.231
glycan array binding signal (z-score) [31]: -0.052
glycan array binding signal (z-score) [32]: -0.189
glycan array binding signal (z-score) (Fuc(a1-4)GlcNAc): -0.447
glycan array binding signal (z-score) (Fuc(b1-3)GlcNAc): 0.055
glycan array binding signal (z-score) (Gal(a1-2)Gal): -0.17
glycan array binding signal (z-score) (Gal(a1-3)Gal): -0.325
